In all, about 110,000 compounds were measured (“z-score”: median about -0.1, highest 2% from about 2 on). The list shows a part of the results.
These compounds were tested against Metabotropic glutamate receptor 8 (Rattus norvegicus) (UniProt P70579) (assay: rat mGluR8 modulators via GIRK flux, primary screen, cell-based, thallium flux, HTS (AID 488969)). Details: HEK293 rat mGluR8, GIRK (G protein-gated inwardly rectifying potassium channel) thallium flux, FluoZin2; at 10 µM; stronger effect = higher value; submaximal glutamate (EC20) added with thallium.
Chain of UniProt P70579 (P70579 whole entry, looked up): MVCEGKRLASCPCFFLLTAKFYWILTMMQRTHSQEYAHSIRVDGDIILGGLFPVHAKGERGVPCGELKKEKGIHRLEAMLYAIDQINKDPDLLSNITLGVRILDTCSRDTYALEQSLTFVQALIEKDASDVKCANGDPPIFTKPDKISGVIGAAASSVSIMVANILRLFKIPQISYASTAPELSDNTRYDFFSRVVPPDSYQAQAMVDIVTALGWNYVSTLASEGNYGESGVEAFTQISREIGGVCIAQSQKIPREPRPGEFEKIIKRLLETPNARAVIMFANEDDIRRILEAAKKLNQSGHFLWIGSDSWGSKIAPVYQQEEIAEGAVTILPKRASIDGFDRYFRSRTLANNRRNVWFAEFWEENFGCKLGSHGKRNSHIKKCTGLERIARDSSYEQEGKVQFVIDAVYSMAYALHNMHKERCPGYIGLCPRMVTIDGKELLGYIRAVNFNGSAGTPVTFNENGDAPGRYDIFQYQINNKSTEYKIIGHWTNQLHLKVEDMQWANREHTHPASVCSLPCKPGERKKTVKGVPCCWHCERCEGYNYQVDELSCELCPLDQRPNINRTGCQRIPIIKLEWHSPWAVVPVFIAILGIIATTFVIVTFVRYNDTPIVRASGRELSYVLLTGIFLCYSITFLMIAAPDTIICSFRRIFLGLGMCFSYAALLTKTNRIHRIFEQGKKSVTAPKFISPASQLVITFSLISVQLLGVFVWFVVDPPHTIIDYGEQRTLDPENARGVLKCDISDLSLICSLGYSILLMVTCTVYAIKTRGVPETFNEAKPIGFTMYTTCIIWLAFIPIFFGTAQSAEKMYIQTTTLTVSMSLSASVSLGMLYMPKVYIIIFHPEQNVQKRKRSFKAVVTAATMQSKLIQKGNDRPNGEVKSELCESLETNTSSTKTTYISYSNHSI

First: Clc1ccc2noc(-c3ccccc3)c2c1
Second: c1cncc(-c2nc3ccccc3o2)c1
The z-score of the first is lower: -0.0958 for the first, -0.0182 for the second.

Going from `CCCCOc1ccc(/C=C/C(=O)Nc2ccc(C(N)=O)cc2)cc1` to `COc1ccc(NC(=O)CCS(=O)(=O)c2ccc(OC)cc2)cc1`, the z-score rises from -0.626 to -0.0401.

Compared with `CCC(C)(C)NC(=O)C(c1cccn1C)N(C(=O)Cn1nnc2ccccc21)c1ccc(OC)cc1OC` (centres undefined), `CC(C)(C)NC(=O)C(c1ccco1)N(C(=O)Cn1nnc(-c2ccc(F)cc2)n1)c1ccccc1F` (centres undefined) is lower in z-score: -0.0483 for the first, -0.0985 for the second.

Compared with `CC(C)(C)NC(=O)Cn1c(-c2nonc2N)nc2ccccc21`, `C=CCn1c(P(C)(=O)O)nc2ccccc21` is lower in z-score: 0.105 for the first, -0.176 for the second.

First: COC(=O)/C=c1/sc2n(c1=O)CCN=2
Second: Cc1cccn2c(=O)c(C=O)c(N3CCCCCC3)nc12
The z-score of the first is higher: 0.679 for the first, -0.417 for the second.

First: Cc1ccc(Cn2nnc3c(=O)[nH]c(C4CCN(S(=O)(=O)c5cc(C)ccc5C)CC4)nc32)cc1
Second: COC(=O)C1=C(CN2CCc3ccccc32)NC(=O)NC1c1cc(C)ccc1C (centres undefined)
The z-score of the first is higher: 0.616 for the first, -0.386 for the second.

Compared with `CC(Nc1cccc2ccccc12)C(=O)N/N=C/c1ccc([N+](=O)[O-])cc1` (centres undefined), `O=C(NCCNc1ccc([N+](=O)[O-])cc1)c1cccc2c(Br)cccc12` is higher in z-score: -0.0998 for the first, 0.14 for the second.

Going from `Cc1cccc(NC(=S)N/N=C/c2ccc(Cl)c([N+](=O)[O-])c2)c1` to `COc1cccc(/C=N/NC(N)=S)c1OCc1ccccc1Cl`, the z-score falls from 0.0887 to -0.122.

Compared with `O=C(CSc1nnc(-c2ccc(OC(F)F)cc2)o1)N1CCOCC1`, `N#Cc1cc2c(nc1SCC(=O)N1CCOCC1)CCCCC2` is higher in z-score: 0.102 for the first, 0.155 for the second.

Compared with `Fc1ccc(CSc2nnc(-c3cnccn3)n2Cc2ccco2)cc1`, `CN(C(=O)c1ccno1)c1nnc(-c2cnccn2)s1` is higher in z-score: -1.29 for the first, 0.53 for the second.

Going from `Cc1nn(C)c(C(=O)N/N=C/c2ccc(C(F)(F)F)cc2)c1[N+](=O)[O-]` to `O=C(Nc1ccccc1-c1ccccc1)c1cccc(C(F)(F)F)c1`, the z-score rises from -0.463 to 0.264.

Compared with `O=C(CNC(=O)C(c1ccccc1)c1ccccc1)OCC(=O)c1cccs1`, `C/C(=C\C(=O)c1ccccc1)NNc1nc2ccccc2s1` is lower in z-score: -0.0213 for the first, -0.107 for the second.

First: COc1ccc(S(=O)(=O)NCCSC(C)(C)C)cc1
Second: COc1ccc(S(=O)(=O)NCCc2c(C)nn(C)c2Oc2ccccc2)cc1
The z-score of the first is lower: -0.349 for the first, -0.101 for the second.

Compared with `COc1cccc(-c2ccc(=O)n(CC(=O)Nc3cc4c(cc3NC(C)=O)OCCO4)n2)c1`, `CCOC(=O)c1cc(-c2ccccc2)n(CC(=O)Nc2ccc(OC)c(OC)c2)c1C` is lower in z-score: 2.05 for the first, 0.791 for the second.

Going from `Cc1ccc2c(c1)-c1c(cnn1CC(=O)NC(C)CCc1ccco1)CO2` (centres undefined) to `Cc1cc([N+](=O)[O-])nn1CC(=O)NCc1ccco1`, the z-score rises from -0.697 to -0.13.

First: CCOc1ccc(/C=N/OC(C)C(=O)NCc2ccc3c(c2)OCO3)cc1 (centres undefined)
Second: CN1C(=O)C(O)(CC(=O)c2ccc3c(c2)OCO3)c2ccccc21 (centres undefined)
The z-score of the first is higher: 0.0552 for the first, -0.0844 for the second.

First: CCN(CC)CCCNC(=O)c1ccc(Cl)c(S(=O)(=O)Nc2ccccc2OC)c1
Second: CN(C)CCCNC(=O)c1ccc(Cl)c(S(=O)(=O)N(C)c2ccccc2)c1
The z-score of the first is higher: -0.0127 for the first, -0.583 for the second.

Compared with `COc1cccc(C2C(C(=O)Nc3cccnc3)=C(C)Nc3nnnn32)c1OC` (centres undefined), `COc1ccc(NC(=O)C2=C(C)Nc3ncnn3C2c2ccccc2C(F)(F)F)c(OC)c1` (centres undefined) is lower in z-score: -0.18 for the first, -0.222 for the second.

Going from `Cn1ncc(Br)c1C(=O)N1CCN(C(=O)c2ccco2)CC1` to `O=C(c1ccco1)N1CCN(C(=O)c2cnn3cccnc23)CC1`, the z-score falls from -0.124 to -0.36.

First: Cc1cc(-n2c(C)cc(C(=O)CN3C(=O)NC4(CCCCC4)C3=O)c2C)no1
Second: CCCN(C(=O)Cc1nc(N)n[nH]1)C1(C(=O)Nc2ccccc2C)CCCCC1
The z-score of the first is lower: -0.183 for the first, 0.232 for the second.

Going from `Cc1ccc(CNC(=O)CCNC(=O)Cn2ccc3ccccc3c2=O)cc1` to `COc1ccc(CCNC(=O)c2ccc(CNS(=O)(=O)c3cc(C)ccc3C)cc2)cc1OC`, the z-score falls from -0.213 to -0.564.

Going from `CC(C)(O)/C=C1/Oc2ccccc2C1N1CCCCC1` (centres undefined) to `COc1ccc(C(=O)N2CCCc3ccccc32)cc1`, the z-score falls from -0.131 to -0.672.

Going from `Nn1c(SCC(=O)Nc2ccc3c(c2)OCO3)nnc1-c1ccccc1` to `O=C(CSc1ccccc1)Nc1ccc(N2CCN(c3ccccc3)CC2)c(F)c1`, the z-score falls from 0.129 to -0.106.

Compared with `CCCCn1c(O)c(N=NC(=O)Cn2c(C(F)(F)F)nc3ccccc32)c2ccccc21`, `CC(=O)NCc1nc2ccccc2n1Cc1ccccc1F` is higher in z-score: 0.194 for the first, 0.652 for the second.

Compared with `O=C(NCC1CCCO1)c1onc(CSc2ccccc2F)c1C(=O)O` (centres undefined), `CC(C(=O)NCC1CCCO1)N(C(=O)c1snc(C(N)=O)c1N)c1cccc(F)c1` (centres undefined) is higher in z-score: -1.59 for the first, -0.442 for the second.

Going from `Cc1ccc(-c2noc(-c3ccccc3C(=O)N3CCN(C)CC3)n2)cc1` to `CCCS(=O)(=O)N1CCN(C(=O)c2ccc(-c3ccccc3)cc2)CC1`, the z-score falls from -0.225 to -0.357.

Going from `CCOC(=O)c1c(NC(=O)c2cccs2)sc(CC)c1-c1cccs1` to `CCN(CC)C(=O)c1sc(NC(=O)Cc2ccccc2)c(C#N)c1C`, the z-score falls from -0.275 to -0.357.

Going from `O=C(CN1CCN(C2CCCCC2)CC1)NCCC1=CCCCC1` to `CC(NCC1(N2CCOCC2)CCCCC1)C(=O)N1CCc2ccccc21` (centres undefined), the z-score rises from 0.393 to 0.962.

First: O=C(c1cccs1)N1CCN(Cc2ccc3c(c2)OCO3)CC1
Second: O=C(NC1(C(F)(F)F)NC(=O)N(Cc2cccnc2)C1=O)c1cccs1 (centres undefined)
The z-score of the first is lower: -0.063 for the first, -0.0452 for the second.

Compared with `Cn1cc(Br)c(C(=O)NNC(=O)c2cccc(Br)c2)n1`, `CCOc1ccc(CN(C)CC(=O)NNC(=O)c2ccc(Cl)cc2)cc1OC` is higher in z-score: 0.0308 for the first, 0.122 for the second.

Going from `COc1cc(C(=O)NCc2nnc(SCC(=O)N3CCCCC3)o2)cc(OC)c1OC` to `CCC(C)NS(=O)(=O)c1ccc(OCC(=O)N2CCCC2)cc1` (centres undefined), the z-score rises from -0.341 to 0.125.

First: Cn1c(=O)[nH]c(=O)c2c1nc(N1CCNCC1)n2Cc1cccc2ccccc12
Second: O=c1c2ccccc2nc2c3ccccc3c(NCCN3CCOCC3)nn12
The z-score of the first is higher: 1.21 for the first, 0.173 for the second.

Going from `CCNC(=O)NC(=O)C(C)OC(=O)c1oc2ccc(OC)cc2c1C` (centres undefined) to `COC(=O)c1c(C)oc2ccc(NS(=O)(=O)c3cc(OC)ccc3OC)cc12`, the z-score rises from -0.0656 to 0.169.

Going from `C=CCSc1nc2ccccc2n1C(=O)/C=C/c1ccc(OC)c(OC)c1` to `COc1ccc(-c2nnc(SC(C)C(=O)Nc3nccs3)n2-c2ccccc2)cc1OC` (centres undefined), the z-score falls from 0.354 to -1.69.

First: Cc1ccc(NC(=O)c2cc(S(=O)(=O)N3CCCCC3)ccc2N2CCOCC2)cc1F
Second: Cc1cccc(-n2c(CNC(=O)c3ccc(S(=O)(=O)N4CCCC4)cc3)n[nH]c2=S)c1
The z-score of the first is higher: -0.105 for the first, -0.425 for the second.

First: CC(Cc1ccccc1)NC(=O)C1CCCNC1=O (centres undefined)
Second: Cc1ccc(C2CC(=O)C=C(NCC(C)C)C2)cc1 (centres undefined)
The z-score of the first is lower: -0.463 for the first, -0.142 for the second.

Compared with `O=C1OC(c2ccc(Cl)cc2)=N/C1=C\c1cccnc1`, `O=C(Nc1ccn(-c2ccccc2)n1)c1ccc(Cl)cc1` is lower in z-score: -0.164 for the first, -0.201 for the second.

Compared with `O=C1CC(=C(c2ccccc2)c2ccccc2)C(=O)N1CCCN1CCN(c2cccc(Cl)c2)CC1`, `O=C1/C(=C/c2ccc([N+](=O)[O-])cc2)C=C(c2ccccc2)N1c1ccccc1` is higher in z-score: -0.113 for the first, 0.032 for the second.

Going from `CC(NC(=O)c1sc2cc([N+](=O)[O-])ccc2c1Cl)C(C)(C)C` (centres undefined) to `COc1ccc(NS(=O)(=O)c2cc(OCC(N)=O)c(C)cc2Cl)cc1`, the z-score falls from 0.263 to 0.049.

Compared with `Cc1c(NC(=O)c2ccco2)cccc1-c1nc2cccnc2s1`, `CCCN=C(C)c1c(-c2ccccc2)[nH]n(-c2nc3ccccc3s2)c1=O` is higher in z-score: -0.624 for the first, -0.128 for the second.

Going from `Brc1ccc(/C=N/Nc2ccc3ccccc3n2)cc1` to `Cc1ccc(NC(=O)CCS(=O)(=O)c2ccc(Br)cc2)nc1`, the z-score rises from -0.0956 to 1.03.

First: CCN(CCCNS(=O)(=O)c1ccc2c(c1)CCN2C(C)=O)c1cccc(C)c1
Second: CCC(=O)N1CCc2cc(S(=O)(=O)CCC(=O)Nc3nc(C)cs3)ccc21
The z-score of the first is lower: -0.185 for the first, -0.0859 for the second.

First: COc1ccc(-c2nn(C)c(=O)c3ccccc23)cc1CNS(C)(=O)=O
Second: Cc1ccc(N(CC(O)CON=C2c3ccccc3-c3ccccc32)S(C)(=O)=O)cc1 (centres undefined)
The z-score of the first is lower: 0.148 for the first, 0.98 for the second.

Going from `CCCS/C(N)=N/N=C/c1ccccc1O` to `CSc1nncn1/N=C/c1ccccc1F`, the z-score falls from -0.16 to -0.418.

Going from `O=C(O)C(C(=O)/C=C/c1ccco1)=C1SCCS1` to `Cc1oc(/C=N/NS(=O)(=O)c2ccccc2)cc1Br`, the z-score rises from -0.14 to 1.12.

First: CCC(c1nnnn1C(C)(C)C)N(Cc1cccs1)Cc1cc2cc(C)c(C)cc2n2nnnc12 (centres undefined)
Second: CCOc1cc(CNCc2ccccn2)ccc1OCC(=O)NC(C)(C)C
The z-score of the first is higher: -0.0672 for the first, -0.243 for the second.

Going from `CCCOC(=O)c1ccc(Oc2cn[nH]c2-c2ccc(OCC)cc2O)cc1` to `CCOc1ccccc1OCCCOc1ccc(C)cc1Br`, the z-score falls from 0.835 to -0.494.

Going from `Cc1nc(S/C(=C\c2ccc(OCc3ccccc3Cl)cc2)C(=O)O)n[nH]1` to `O=c1oc2cc(OCc3ccc(F)cc3F)ccc2cc1-c1ccccn1`, the z-score rises from -0.511 to -0.256.

First: O=C1CN(c2ccc(Cl)cc2)C(=O)CN1NC(=S)Nc1ccc(Cl)cc1
Second: O=C1NC2(CCCc3ccccc32)C(=O)N1CCOc1ccc(Br)cc1 (centres undefined)
The z-score of the first is higher: -0.0528 for the first, -0.132 for the second.

Compared with `CCOc1ccc2c(C)c(C(=O)O)oc2c1OCC`, `CCCC(=O)Nc1ccc(Br)c(Cl)c1` is higher in z-score: -0.107 for the first, 0.247 for the second.

Compared with `COc1ccc(-c2csc(NC(=O)COc3ccc(N(C)S(=O)(=O)c4ccc(C)cc4)cc3)n2)cc1`, `Cc1nn(Cc2c(F)c(F)c(F)c(F)c2F)c(C)c1NC(=O)c1ccc(COc2ccccc2Cl)o1` is lower in z-score: 0.275 for the first, -0.506 for the second.

First: Nc1ccc2oc3ccc(N)cc3c(=O)c2c1
Second: CCCCc1ccc(Nc2nc(CCC)cc(=O)[nH]2)cc1
The z-score of the first is lower: -0.377 for the first, 0.196 for the second.

Compared with `CCCCN1C(=O)N(C)C2C1N(C)C(=O)N2CCCC` (centres undefined), `O=C1OCC(CO)(CO)N=C1NNc1cc(Cl)ccc1Cl` is lower in z-score: -0.16 for the first, -0.197 for the second.

First: NC(=O)c1cc(S(=O)(=O)NC2CCCCC2)co1
Second: Cc1cc(NC(=O)c2c(F)c(F)c(F)c(F)c2F)no1
The z-score of the first is lower: -0.0283 for the first, 0.46 for the second.

Work on `Cc1nc(NCCN2CCOCC2)c2oc3ccccc3c2n1` yielded a z-score of 1.16.
